Assay results reported in the supplement of paper PMC3724861.
The other results are listed elsewhere or left out.

Each sequence was assayed on T1, Caupolican (Caup) homeodomain DNA-binding domain (assay: PBM E-score (8-mer, recovered from the published 9-mer minima) (E-score (dimensionless, -0.5 to 0.5)); Drosophila protein; higher = stronger relative binding preference, active = 0.31 or more).
T1 sequence: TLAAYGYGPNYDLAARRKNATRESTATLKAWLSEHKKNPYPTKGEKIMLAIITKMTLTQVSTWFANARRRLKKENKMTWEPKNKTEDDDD
Outline: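 An enrichment score, with higher meaning stronger, expresses relative binding preference for each short DNA word. The protein used was Caup's homeodomain DNA-binding domain (residues 214-303), produced by in vitro transcription and translation and tested at 100 nM on custom-designed protein binding microarrays. The 8-mer values were recovered from published 9-mer scores, each equal to the lower of its two constituent 8-mer scores.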

Row | Sequence | PBM E-score
1 | CACTCAAC | inactive: 0.0378
2 | GGTGGATA | inactive: -0.00667
3 | ACGAAACG | inactive: 0.0226
4 | AGGTCCTG | inactive: -0.0862
5 | AGAGCTTC | inactive: -0.153
6 | AAACCACA | inactive: 0.14
7 | ACAAACCG | inactive: 0.0217
8 | GACAAGTA | active: 0.355
9 | CGCTCGAA | inactive: -0.0903
10 | CCCTGTAG | inactive: 0.0794
11 | ATCTGAAA | inactive: -0.0287
12 | AGACGTCC | inactive: -0.0206
13 | GATACTGC | inactive: 0.0885
14 | CACCGGGG | inactive: -0.279
15 | CTAATGGC | inactive: -0.112
16 | AGCGTGCA | inactive: 0.0131
17 | ATTCACTG | inactive: 0.059
18 | AAAACTCT | inactive: -0.0466
19 | CACTCGCA | inactive: -0.0749
20 | ATAGGCCA | inactive: -0.0897
21 | CCCACAAC | inactive: -0.112
22 | CGGTGGGA | inactive: -0.258
23 | AGATCTCG | inactive: -0.0451
24 | CCAAAAAC | inactive: 0.0878
25 | CACATTCA | inactive: 0.0769

Row | Sequence | PBM E-score
26 | CAGACCGC | inactive: -0.127
27 | ACTATCAG | inactive: 0.083
28 | AATCAGTC | inactive: 0.104
29 | ATGCTAGC | inactive: 0.0581
30 | AGTACTGA | inactive: 0.0906
31 | ACCGGGCG | inactive: -0.275
32 | CAATTGGA | inactive: 0.0086
33 | ATGGTTTC | inactive: 0.126
34 | GACAATCC | inactive: 0.0406
35 | TAAGTCAA | inactive: 0.0724
36 | CTTATAGA | inactive: -0.0369
37 | ACCATTGA | inactive: 0.0779
38 | AAGCAAGA | inactive: 0.085
39 | ACCACGCC | inactive: -0.154
40 | GCCTACGA | inactive: -0.0486
41 | TCGACCGA | inactive: -0.161
42 | GTATCGTA | inactive: 0.171
43 | AACGCAAG | inactive: -0.0235
44 | CAAGTCCA | inactive: -0.0273
45 | CGAATAAG | inactive: -0.00374
46 | CAACACGA | inactive: 0.267
47 | CAACCCCC | inactive: -0.109
48 | CGGCCCGA | inactive: -0.155
49 | CACGTGTA | active: 0.329
50 | CCACATGG | inactive: -0.0747

Row | Sequence | PBM E-score
51 | GACATCTA | inactive: 0.218
52 | AGTACGAC | inactive: 0.124
53 | AGGAGAAG | inactive: -0.0919
54 | AGCCATTC | inactive: -0.0817
55 | AATAATAT | inactive: 0.208
56 | GTGTCTCA | inactive: 0.0985
57 | CACAGAAC | inactive: 0.105
58 | CAGCCATA | inactive: -0.0297
59 | CTAGGGAC | inactive: -0.123
60 | AAGTCTGA | inactive: 0.0516
61 | CGAGGCCG | inactive: -0.2
62 | CTTGGGTC | inactive: -0.0686
63 | AGGCAATA | inactive: 0.0132
64 | TTGGAAAA | inactive: 0.0781
65 | GCAGTAGC | inactive: -0.147
66 | CACCCTCG | inactive: -0.0535
67 | AACGAATA | inactive: 0.00416
68 | ACGGGGAT | inactive: -0.0623
69 | CAAACTGG | inactive: -0.0525
70 | GAGGTCCA | inactive: -0.153
71 | ACGCGAGC | inactive: -0.157
72 | ATGAGAAG | inactive: 0.0124
73 | AGGCGCCT | inactive: -0.214
74 | AGCTGTTG | inactive: 0.101
75 | TCGAGTAA | inactive: 0.107

Row | Sequence | PBM E-score
76 | GCGACCCA | inactive: -0.183
77 | CTTTCCTC | inactive: -0.0229
78 | GGAGACAA | inactive: 0.112
79 | CCATCAGC | inactive: -0.0297
80 | CCCAATCC | inactive: -0.0855
81 | CCAGGTTC | inactive: -0.092
82 | AATCCTAT | inactive: 0.122
83 | GGCCAGCA | inactive: -0.207
84 | CAAAGGTG | inactive: 0.0189
85 | GCTGTGCA | inactive: -0.142
86 | CCCCCCGC | inactive: -0.353
87 | GGCAGGCC | inactive: -0.257
88 | AGAATAGG | inactive: 0.02
89 | AAAACGAC | inactive: 0.0761
90 | ATGCAGCG | inactive: -0.164
91 | ACGTTCCG | inactive: -0.0768
92 | CCTGCCAG | inactive: -0.107
93 | GTTCCGGA | inactive: 0.0536
94 | AGTGGTAC | inactive: 0.189
95 | ATGATCCG | inactive: 0.0354
96 | AGAGGATA | inactive: 0.0175
97 | CGTAGATC | inactive: 0.00782
98 | ACTAGACA | inactive: 0.235
99 | CAGCTATC | inactive: 0.0134
100 | CCCCATCA | inactive: -0.0951

Row | Sequence | PBM E-score
101 | ATCTAATA | inactive: 0.194
102 | AAAGACTA | inactive: 0.0347
103 | CGTCCTAG | inactive: -0.0562
104 | AGCTTCGC | inactive: -0.139
105 | TATTGTGA | inactive: 0.146
106 | CAAGGGAG | inactive: 0.00805
107 | GCGGGAGC | inactive: -0.322
108 | AAGCCGGT | inactive: -0.0841
109 | ATGTATGC | inactive: 0.297
110 | CCGTACGC | inactive: -0.0853
111 | ATCCCCAT | inactive: -0.0588
112 | AGTATGCA | inactive: 0.0249
113 | AAGAGTTG | inactive: 0.09
114 | GCGGACAA | inactive: 0.183
115 | AGGGAGGG | inactive: -0.195
116 | GGCTATCA | inactive: -0.0844
117 | AGAGGGAT | inactive: -0.0872
118 | AGTAGTGA | inactive: 0.091
119 | CTCTACCA | inactive: 0.0278
120 | CACTCGAA | inactive: 0.00952
121 | AGAATGAC | inactive: 0.0721
122 | ACCTCAGG | inactive: -0.132
123 | ACTCGCTG | inactive: -0.0848
124 | GTTCCAAC | inactive: 0.0551
125 | ACCAATCG | inactive: 0.0658

Row | Sequence | PBM E-score
126 | GTCCGGAC | inactive: -0.107
127 | CACCCGGC | inactive: -0.203
128 | CTCGCCAG | inactive: -0.191
129 | TAGTTACA | active: 0.311
130 | AAGTGAAT | inactive: 0.127
131 | CAGTCTTC | inactive: -0.0481
132 | CAGAGGCG | inactive: -0.091
133 | GAGCGCAC | inactive: -0.178
134 | GTCATATA | inactive: 0.203
135 | ATCAGGCC | inactive: -0.0404
136 | GAATTTCC | inactive: 0.0654
137 | AACTAGAC | inactive: 0.158
138 | CGTATACG | inactive: 0.0954
139 | AGCTCGAG | inactive: -0.138
140 | TGCCGCCA | inactive: -0.161
141 | GAAGGAAC | inactive: -0.0306
142 | AATCAGAT | inactive: 0.177
143 | AAGTCGGA | inactive: -0.0333
144 | GTGAACTA | inactive: 0.0654
145 | CTCTCGAA | inactive: -0.0153
146 | ACCTACGG | inactive: -0.144
147 | ACAAACTC | inactive: 0.114
148 | AAAAATAC | inactive: 0.101
149 | GGATATGA | inactive: 0.0498
150 | CGGAAGAG | inactive: -0.148

Row | Sequence | PBM E-score
151 | GCTGAGCA | inactive: -0.0568
152 | GAGCGACA | inactive: 0.246
153 | CTTTAAGA | inactive: -0.00042
154 | GAAAGTGC | inactive: -0.174
155 | CACAGTAA | inactive: 0.122
156 | GTTAACCA | inactive: 0.112
157 | GCCCGCCC | inactive: -0.288
158 | ATTATTCC | inactive: 0.0933
159 | ACTCACAT | inactive: 0.144
160 | GTGCAAGA | inactive: 0.019
161 | ATGTGACG | inactive: 0.0877
162 | ACGCAGAC | inactive: -0.0561
163 | ATGGGTGG | inactive: -0.165
164 | ACCGTTCA | inactive: 0.0485
165 | ATAAAGGA | inactive: 0.00587
166 | ACATTTGG | inactive: 0.0197
167 | GTAGCTGA | inactive: -0.033
168 | GCACAGAC | inactive: -0.00079
169 | CGAAGGTA | inactive: 0.00636
170 | AGACACAT | inactive: 0.213
171 | CCCCGTCG | inactive: -0.29
172 | CTCGATAA | inactive: -0.0103
173 | AAAAGAAC | inactive: 0.0872
174 | AAAATAAT | inactive: 0.0993
175 | ACGGCATG | inactive: 0.0642

Row | Sequence | PBM E-score
176 | AGACACAG | inactive: 0.18
177 | CACCACGA | inactive: -0.00261
178 | CAGTATGA | inactive: 0.127
179 | CGGTATGC | inactive: -0.147
180 | GGAAGCTA | inactive: -0.154
181 | CTGGTTGA | inactive: -0.0348
182 | GACCTGTA | inactive: 0.123
183 | CCAATAAA | inactive: 0.0561
184 | AGTCCGGA | inactive: -0.0664
185 | AGTAGCGA | inactive: 0.0272
186 | AGTAGAAT | inactive: 0.127
187 | CTGGTCTA | inactive: -0.0246
188 | GCCGACTA | inactive: -0.00422
189 | CGACATCC | inactive: 0.134
190 | ACGTTCTA | inactive: 0.0186
191 | AAGGCAAA | inactive: 0.0632
192 | AGATTTCC | inactive: -0.0416
193 | CAACGGGA | inactive: -0.0153
194 | ACCGCTTG | inactive: 0.0304
195 | GTGGTACA | inactive: 0.277
196 | CGCGTGAC | inactive: -0.0427
197 | AACAGGAG | inactive: 0.148
198 | CTAAAATC | inactive: -0.0137
199 | TGAAATAA | ≥ 0.169
200 | GCTTTTAA | inactive: -0.0675

Row | Sequence | PBM E-score
201 | TACGAGAA | inactive: 0.0405
202 | CCGCATCG | inactive: -0.195
203 | TCGCGAAA | inactive: -0.0342
204 | AGACGAGC | inactive: -0.114
205 | GCCTCCAA | inactive: -0.121
206 | CCATGACG | inactive: -0.0737
207 | CTGCGCTA | inactive: -0.201
208 | GCCGGAGA | inactive: -0.163
209 | GAATACCC | inactive: -0.0908
210 | CAGACTCC | inactive: -0.153
211 | ACAAGTAA | active: 0.331
212 | CGCCAGAC | inactive: -0.108
213 | CTTTATAC | inactive: 0.0943
214 | ACACGATC | inactive: 0.254
215 | AGGCTGGA | inactive: -0.16
216 | CATCCGCC | inactive: -0.0933
217 | ACTAATCT | inactive: 0.0999
218 | CGCGCCCC | inactive: -0.346
219 | ATGACCTA | ≥ 0.11
220 | AGATTAGA | inactive: 0.115
221 | GAGCTGCA | inactive: -0.19
